The results in this text go back to the supplement of paper PMC4604168 (melanoma cell lines).

The list shows a part of the results. Many values rest on one well or one pass, so single values are uncertain.

Test systems include MZ2-MEL; MeWo; RPMI7951; RVH-421; SkMel28; SkMel2; SkMel30; SkMel5; UACC257; UACC62; WM115; WM1716; WM1745; WM3526; WM3619; WM451Lu.
What all share (test): cell count relative to DMSO control; melanoma cells; higher = more viable cells
Conditions in all cases: library dose: low library concentration; 72 h
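Also: cell number obtained by counting DAPI-stained nuclei in high-throughput microscope images with image analysis software, screen run in 1,536-well plates.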

For the compound `Nc1nc(F)nc2c1ncn2[C@@H]1O[C@H](CO)[C@@H](O)[C@@H]1O` [fludarabine] + COc1cc(Nc2ncc(F)c(Nc3ccc4c(n3)NC(=O)C(C)(C)O4)n2)cc(OC)c1OC [Tamatinib] (first compound 0.2 µM, partner dose 0.4 µM), the cell count in the test on MZ2-MEL was found to be 95.4%; in the test on MeWo it was 47.3%; in the test on RPMI7951, 81.2%; in the test on RVH-421 it was 118%; in the test with SkMel28 it was 63.5%; in the test on SkMel2, 9.03%. Also, the cell count with SkMel30 amounted to 32%; with SkMel5 it was 66.7%; in the test on UACC257, 89.5%; with UACC62, 94.3%; with WM115 it was 88.8%; in the test with WM1716 it was 108%. For the same compound, the cell count in the test on WM1745 was 70.2%; in the test on WM3526, 43.5%; in the test with WM3619, 93.7%; in the test with WM451Lu it was 48.7%.
On to `Nc1ncn([C@H]2C[C@H](O)[C@@H](CO)O2)c(=O)n1` [decitabine] + Oc1nc(-c2ccc(C(F)(F)F)cc2)nc2c1CSCC2 [XAV939] (first compound 0.1 µM, partner dose 2 µM), for which the cell count in the test on MZ2-MEL turned out to be 80.5%; with MeWo, 103%; in the test on RPMI7951, 78.3%; in the test on RVH-421, 80.9%; in the test with SkMel28 it was 92%; in the test with SkMel2 it was 104%. In addition, the cell count in the test with SkMel30 amounted to 85.1%; in the test with SkMel5 it was 86.2%; in the test on UACC257, 104%; with UACC62, 63.3%; in the test on WM115, 78.7%; in the test on WM1716, 52.4%. Further, the cell count in the test with WM1745 worked out at 81.3%; with WM3526, 77.5%; in the test on WM3619, 85.8%; with WM451Lu, 104%.
Turning to `Nc1nc(F)nc2c1ncn2[C@@H]1O[C@H](CO)[C@@H](O)[C@@H]1O` [fludarabine] + O=C(O)c1ccc(-c2c[nH]c3ncc(-c4ccccc4)cc23)cc1C1CCCC1 [GSK650394] (first compound 0.2 µM, partner dose 0.16 µM), the cell count was found to be 103% in the test on MZ2-MEL; 31.3% in the test with MeWo; 93% with RPMI7951; 92.3% in the test with RVH-421; 66.8% with SkMel28; 5.15% with SkMel2. In addition, the cell count in the test on SkMel30 is 18.3%; with SkMel5, 58.1%; with UACC257, 93.5%; with UACC62, 83%; in the test on WM115, 83.6%; with WM1716 it was 97.2%. The cell count in the test with WM1745 was 104%; with WM3526, 27.6%; in the test on WM3619, 86.9%; in the test with WM451Lu it was 44.1%.
As to `CC(=O)c1c(C)c2cnc(Nc3ccc(N4CCNCC4)cn3)nc2n(C2CCCC2)c1=O` [palbociclib] + Oc1nc(-c2ccc(C(F)(F)F)cc2)nc2c1CSCC2 [XAV939] (first compound 0.04 µM, partner dose 2 µM), the cell count in the test on MZ2-MEL is 75.4%; in the test with MeWo it was 71.2%; in the test on RPMI7951, 57.6%; in the test on RVH-421 it was 69.5%; in the test on SkMel28, 61.8%; in the test with SkMel2 it was 77.1%. Also, the cell count in the test on SkMel30 is 80.2%; in the test with SkMel5 it was 59.2%; with UACC257 it was 53.2%; in the test with UACC62, 65%; with WM115, 62%; in the test on WM1716 it was 41%. Moreover, the cell count in the test with WM1745 worked out at 63.2%; in the test with WM3526, 57%; in the test with WM3619, 61.6%; with WM451Lu it was 53.2%.
For the compound `Nc1ccn([C@@H]2O[C@H](CO)[C@@H](O)C2(F)F)c(=O)n1` [gemcitabine] + COc1cc2c(Oc3ccc4[nH]c(C)cc4c3F)ncnc2cc1OCCCN1CCCC1 [cediranib] (first compound 0.0004 µM, partner dose 0.4 µM), the cell count with MZ2-MEL was determined as 99.8%; with MeWo it was 98.1%; with RPMI7951, 100%; with RVH-421, 91.9%; in the test with SkMel28, 106%; in the test with SkMel2, 102%. Besides, the cell count was found to be 94.8% with SkMel30; 87.9% in the test with SkMel5; 79.3% in the test on UACC257; 86.3% with UACC62; 89.4% in the test with WM115; 93% in the test with WM1716. The cell count in the test on WM1745 was 55.2%; with WM3526, 97.1%; with WM3619, 81.2%; in the test with WM451Lu, 110%.
On to `Nc1nc(F)nc2c1ncn2[C@@H]1O[C@H](CO)[C@@H](O)[C@@H]1O` [fludarabine] + CC(C)(C)c1cnc(CSc2cnc(NC(=O)C3CCNCC3)s2)o1 [SNS-032] (first compound 0.2 µM, partner dose 0.01 µM), for which the cell count in the test with MZ2-MEL is 105%; with MeWo, 22.4%; in the test on RPMI7951, 73.2%; in the test on RVH-421, 91.4%; in the test with SkMel28 it was 64.4%; with SkMel2 it was 4.48%. Also, the cell count in the test with SkMel30 stood at 30.2%; in the test on SkMel5, 58.1%; with UACC257, 69.1%; in the test with UACC62, 88.6%; in the test with WM115 it was 94.7%; in the test with WM1716, 103%. In addition, the cell count in the test with WM1745 was determined as 86.8%; in the test with WM3526, 25.6%; in the test on WM3619, 98.5%; in the test with WM451Lu it was 40.5%.
With `Nc1ccn([C@@H]2O[C@H](CO)[C@@H](O)C2(F)F)c(=O)n1` [gemcitabine] + CCCCCCCCCCCC1=C(O)C(=O)C=C(O)C1=O [Embelin] (first compound 0.0004 µM, partner dose 1.2 µM), the cell count in the test with MZ2-MEL came out at 97.2%; in the test with MeWo, 97.3%; in the test on RPMI7951, 85.1%; in the test on RVH-421, 77.6%; in the test with SkMel28, 108%; in the test with SkMel2 it was 102%. Besides, the cell count with SkMel30 came to 122%; in the test with SkMel5, 94.3%; in the test on UACC257, 106%; in the test on UACC62, 101%; with WM115 it was 94.3%; in the test with WM1716 it was 61.4%. In addition, the cell count with WM1745 was 75.1%; in the test on WM3526 it was 125%; in the test on WM3619, 92.2%; with WM451Lu it was 89%.
Regarding `Nc1ccn([C@@H]2O[C@H](CO)[C@@H](O)C2(F)F)c(=O)n1` [gemcitabine] + O=C(O)c1ccc(-c2c[nH]c3ncc(-c4ccccc4)cc23)cc1C1CCCC1 [GSK650394] (first compound 0.0004 µM, partner dose 0.16 µM), the cell count in the test with MZ2-MEL is 97.3%; in the test with MeWo, 94.7%; in the test on RPMI7951 it was 91.6%; in the test with RVH-421 it was 106%; in the test on SkMel28, 93.7%; with SkMel2 it was 90.3%. Besides, the cell count with SkMel30 stood at 143%; in the test on SkMel5 it was 107%; with UACC257, 81.4%; in the test on UACC62, 110%; in the test on WM115, 104%; in the test with WM1716, 99.1%. The cell count in the test on WM1745 amounted to 79.2%; in the test on WM3526, 110%; in the test with WM3619 it was 71.3%; with WM451Lu, 126%.
